Data from PubChem BioAssay AID894 (National Center for Advancing Translational Sciences (NCATS), 2007).
Among all 150,000 compounds or so, about 6,500 (4.3%) were called active. Inconclusive results, whose numbers are uncertain, are shown with a selection of clear calls. Calls come from the whole dose curve; as a rule, active = well fitted inhibition curve with a large enough effect (not every such curve was filed as active); inconclusive = small, poorly fitted or top-dose-only effect, or another doubt; inactive = no such curve, though single readings can be large or run the other way. Potencies of inconclusive entries are left out as doubtful fits.
% is set by controls: 0 for no effect and ±100 for the full control effect; potency is the fitted concentration of half-maximal effect; tags give direction and shape of the fitted curve.

What follows are compounds tested against 15-hydroxyprostaglandin dehydrogenase [NAD(+)] (Homo sapiens) (UniProt P15428) (assay: qHTS Assay for Inhibitors of HPGD (15-Hydroxyprostaglandin Dehydrogenase)). Settings: purified HPGD, NADH fluorescence kinetic, PGE2 substrate; activity change, negative = inhibition: hits give low values.
Sequence of UniProt P15428 (P15428 whole entry, looked up): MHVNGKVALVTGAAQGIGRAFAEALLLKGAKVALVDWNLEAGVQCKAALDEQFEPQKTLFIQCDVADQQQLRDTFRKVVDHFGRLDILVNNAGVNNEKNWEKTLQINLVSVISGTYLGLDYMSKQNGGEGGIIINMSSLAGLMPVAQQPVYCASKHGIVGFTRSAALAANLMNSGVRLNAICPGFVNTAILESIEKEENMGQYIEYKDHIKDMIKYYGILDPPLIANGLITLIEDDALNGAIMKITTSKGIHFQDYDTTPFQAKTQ
Procedure, shortened: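 20 nM HPGD preincubated 15 min at room temperature with compound in 50 mM Tris-HCl pH 8, 0.01% Tween 20. Started with 1 mM NAD+ and 30 uM prostaglandin E2; NADH fluorescence (360/450 nm) read 5 times over 30-s intervals, last minus first.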
In the case of `COc1cc2ncnc(NCc3ccccc3C)c2cc1OC`, the Potency is reported as inconclusive [inhibitor, partial curve].
`O=C(COC(=O)c1n[nH]c2ccccc12)NC(=O)NC1CCCCC1` was tested, and the activity change, negative = inhibition was inactive: -11.7%.
With `CC(NC(=O)Cn1ccsc1=N)C12CC3CC(CC(C3)C1)C2` (configuration not stated) the activity change, negative = inhibition was inactive: -5.26%.
With `CC(=O)Nc1nc(CC(C)C)cc2c1c(=O)oc1ccccc12` the Potency was inconclusive [inhibitor, partial curve].
In the case of `Cc1ccc2nc(-c3ccc(NS(=O)(=O)c4ccccc4)cc3)sc2c1`, the Potency is reported as inconclusive [inhibitor, partial curve].
For `COc1cc(/C=N/Nc2snc(SC)c2C#N)ccc1O`, the Potency was inconclusive [inhibitor, single point].
With `O=c1[nH]c(NCCCO)nc2c1C1(CCCC1)Cc1ccccc1-2` the Potency was inconclusive [inhibitor, partial curve].
With `CCC1CCCCN1S(=O)(=O)c1ccc(NC(=O)c2cccs2)cc1` (configuration not stated) the activity change, negative = inhibition was inactive: -11.8%.
For `CCOC(=O)c1sc(N)nc1C(C)(C)C`, the Potency was inconclusive [inhibitor, single point].
In the case of `Cc1ccc(Cn2ccc(NC(=O)c3cc(-c4cccs4)on3)n2)cc1`, the Potency is reported as inconclusive [inhibitor, single point].
`COCCN1C(=O)N[C@@H](c2cccc(F)c2)C(C(=O)OC)=C1C` was tested, and the activity change, negative = inhibition was inactive: -7.35%.
For `Cc1cccn2c(NC(=O)c3cccs3)c(-c3ccccc3)nc12`, the activity change, negative = inhibition was inactive: -6.05%.
`COC(=O)c1ccccc1NC(=O)c1ccc(COc2ccc3c(c2)CCC3)cc1` was tested, and the Potency was inconclusive [inhibitor, single point].
For `CCC1(C)Cc2c(sc3nc(SCC(=O)O)[nH]c(=O)c23)CO1` (configuration not stated), the Potency was inconclusive [inhibitor, single point].
In the case of `C[C@@H]1OC(OC2CC[C@@]3(C)C(CC[C@@]4(C)C3CC=C3C5CC(C)(C)CC[C@]5(C(=O)OC5OCC(O)[C@@H](O)[C@@H]5OC5O[C@@H](C)[C@H](O[C@H]6OC(CO)C(O)C(O)C6O)C(O)C5O)C(O)C[C@@]34C)C2(C)C)C(O)C(O)[C@H]1OC1OCC(O)C(O)[C@H]1O` (some centres not stated), the activity change, negative = inhibition is reported as inactive: -4.79%.
With `O=C(CSc1cccc[n+]1[O-])Nc1cc2c(cc1Cl)C(=O)c1ccccc1C2=O` the activity change, negative = inhibition was inactive: -19.1%.
With `CCOc1cc(/C=N/n2cnnc2)c(Br)cc1O` the Potency was inconclusive [inhibitor, partial curve].
In the case of `C/C(=N\NC(=O)c1ccccc1C)c1ccc(N2CCOCC2)cc1`, the activity change, negative = inhibition is reported as inactive: -15.3%.
For `O=C(CNC(=O)c1ccco1)OCc1ccc(C(=O)Oc2ccccc2)cc1`, the activity change, negative = inhibition was inactive: -0.0308%.
In the case of `COc1ccccc1C1CC(=O)Oc2cc(O)ccc21` (configuration not stated), the activity change, negative = inhibition is reported as inactive: -6.56%.
For `O=C(CCc1nc(-c2ccccc2)no1)NC1CCCCC1`, the Potency was active: 17.8 µM.
With `CC(C)n1cc(/C=N\NC(=O)c2cc3c(ccc4ccccc43)o2)c2ccccc21` the Potency was inconclusive [inhibitor, partial curve].
For `O=C(OCC(=O)N1CCN(C(=O)c2ccco2)CC1)c1cc(-c2ccccc2)nc2ccccc12`, the Potency was inconclusive [inhibitor, single point].
`CCOC(=O)c1c(NC(=O)C2C3C=CC(C3)C2C(=O)O)sc2c1CCC(CC)C2` (configuration not stated) was tested, and the Potency was inconclusive [inhibitor, partial curve].
For `CC(C)(C)C(=O)NC(NC(=O)C(C)(C)C)c1ccc([N+](=O)[O-])cc1`, the activity change, negative = inhibition was inactive: -7.67%.
With `CC(=O)NC(CCS(C)(=O)=O)C(=O)Nc1ccc(C)c(F)c1` (configuration not stated) the activity change, negative = inhibition was inactive: -12.8%.
`CNc1ccccc1C(=O)N1CCc2c([nH]c3ccccc23)C1=O` was tested, and the Potency was inconclusive [inhibitor, single point].
For `COC(=O)c1ccccc1NC(=O)c1ccc(COc2cc(C)cc(C)c2)o1`, the Potency was inconclusive [inhibitor, partial curve].
`Cc1ccccc1C(=O)NC(CC(C)C)C(=O)OCc1cc(=O)n2cc(Br)ccc2n1` (configuration not stated) was tested, and the activity change, negative = inhibition was inactive: -20.1%.
`COC(=O)c1c(NC(=O)c2c(C)noc2C)sc2c1CCCCCC2` was tested, and the Potency was inconclusive [inhibitor, partial curve].
For `CCSc1nc(C2CC2)cc(-c2cccs2)c1C#N`, the Potency was inconclusive [inhibitor, single point].
In the case of `CCc1nnc(NC(=O)c2ccc(S(=O)(=O)N(CC(C)C)CC(C)C)cc2)o1`, the activity change, negative = inhibition is reported as inactive: -8.73%.
For `CC(=O)CCc1c(C)c2cccc(C)c2[nH]c1=O`, the Potency was inconclusive [inhibitor, single point].
With `CCN(CC)c1ccc2cc(C=O)c(=O)oc2c1` the Potency was inconclusive [inhibitor, partial curve].
For `Cc1ccc(NC2=NCC(=O)N2CCc2ccccc2)cc1C`, the activity change, negative = inhibition was inactive: -11.5%.
With `COc1ccc(-c2nc(-c3ccccc3)nc(Cl)c2C#N)cc1` the Potency was inconclusive [inhibitor, partial curve].
In the case of `CCOC(=O)N1CCC(NC(=O)c2cc3c(-c4ccc(OC)c(OC)c4)nn(C)c3s2)CC1`, the Potency is reported as inconclusive [inhibitor, partial curve].
In the case of `CCCCNc1nc(-c2ccccc2)c(C(=O)OCC)cc1C#N`, the Potency is reported as inconclusive [inhibitor, single point].
In the case of `O=C(O)c1cccc(CSc2nnc(COc3ccccc3)o2)c1`, the Potency is reported as inconclusive [inhibitor, partial curve, poor fit].
For `O=C(CC(c1ccccc1)c1ccccc1O)NCc1ccco1` (configuration not stated), the Potency was active: 15.8 µM.
For `COc1cccc(OCc2nc3c4cnn(-c5ccccc5)c4ncn3n2)c1`, the Potency was inconclusive [inhibitor, partial curve].
`COc1ccc(OC)c(Nc2cc(-c3ccccc3)nc(N)n2)c1` was tested, and the Potency was inconclusive [inhibitor, partial curve].
`c1ccc(CSc2nnc(-c3sccc3-n3cccc3)o2)cc1` was tested, and the activity change, negative = inhibition was inactive: -30.3%.
For `COc1c(N)c2ccccc2[nH]c1=O`, the activity change, negative = inhibition was inactive: -17.8%.
`O=C(CCc1ccccc1)Nc1cc2c(cc1Cl)OCCO2` was tested, and the Potency was inconclusive [inhibitor, partial curve].
For `O=C(N1CCOCC1)N(Cc1ccco1)CC1CCCO1` (configuration not stated), the Potency was inconclusive [inhibitor, partial curve].
With `COc1ccc(CCCC(=O)NC2CCCCC2)cc1` the Potency was inconclusive [inhibitor, single point].
In the case of `O=C(NCCc1ccccc1)c1cnc2sccn2c1=O`, the Potency is reported as inconclusive [inhibitor, partial curve].
With `CN1CCN(CCCNC(=O)c2cc3c(=O)n(C)c4ccccc4c3s2)CC1` the Potency was inconclusive [inhibitor, partial curve].
`CCN(CC)C(=O)CC(c1ccc(F)cc1)c1ccco1` (configuration not stated) was tested, and the Potency was active: 20 µM.
In the case of `CCn1c2ccccc2c2cc(NC(=O)Cc3ccc(S(=O)(=O)N4CCOCC4)s3)ccc21`, the activity change, negative = inhibition is reported as inactive: -6.53%.
For `CCOC(=O)C1Cc2cc3c(cc2C1=O)CC(C(=O)OCC)C3=O` (configuration not stated), the Potency was inconclusive [inhibitor, partial curve].
With `COc1cccc(-c2nc(CC(=O)O)cs2)c1OC` the Potency was inconclusive [inhibitor, single point].
In the case of `O=c1cc(N2CCc3ccccc32)[nH]c(=O)n1-c1ccc(Br)cc1`, the Potency is reported as active: 28.2 µM.
For `COc1ccc2cc3cc(C(=O)NCCCN4CCOCC4)oc3nc2c1`, the Potency was inconclusive [inhibitor, partial curve].
In the case of `CCN(CC)C(=O)C1CCC(CNS(=O)(=O)c2cccc3cccnc23)CC1` (configuration not stated), the Potency is reported as active: 7.94 µM.
`CCOC(=O)/C(C#N)=C/c1cc2ccccc2nc1N1CCOCC1` was tested, and the activity change, negative = inhibition was inactive: -14.6%.
`CCOC(=O)C1=C(C)N=c2s/c(=C\c3ccncc3)c(=O)n2C1c1ccc2c(c1)OCO2` (configuration not stated) was tested, and the Potency was inconclusive [inhibitor, partial curve].
For `CC(C)(C)C(=O)c1sc2nc(-c3cccs3)cc(C(F)(F)F)c2c1N`, the Potency was inconclusive [inhibitor, partial curve].
`CC(=O)OCC1O[C@@H](O[C@@H]2C[C@H]3C(C)(C)[C@H](OC(C)=O)CC[C@]3(C)[C@H]3CC[C@]45C[C@]4(CC[C@H]5[C@@H](C)C[C@@H](O)[C@H](O)C(C)(C)O)[C@@]32C)[C@H](O)[C@@H](O)[C@@H]1O` (some centres not stated) was tested, and the activity change, negative = inhibition was inactive: -13%.
`Cc1cccc(-c2nsc(SCC(=O)Nc3nccs3)n2)c1` was tested, and the Potency was inconclusive [inhibitor, single point].
With `COc1ccc(OC)c(-c2cc(C(=O)Nc3c(C)nn(Cc4ccccc4Cl)c3C)no2)c1` the Potency was inconclusive [inhibitor, partial curve].
`O=C(Nn1c(SCc2ccc([N+](=O)[O-])cc2)nc2ccccc2c1=O)c1ccc(F)cc1` was tested, and the activity change, negative = inhibition was inactive: -26.2%.
With `CCCCN(CC)c1nc(N)c(C#N)c(CC#N)c1C#N` the Potency was inconclusive [inhibitor, partial curve].
For `Cc1cc(=O)oc2cc(NC(=O)CCCC(=O)O)ccc12`, the Potency was inconclusive [inhibitor, partial curve].
For `Cc1cc(C)nc(NS(=O)(=O)c2ccc(Br)s2)c1`, the Potency was inconclusive [inhibitor, single point].
In the case of `COc1ccc(CN(C(=O)c2ccc(-c3ccccc3)[nH]2)C(C(=O)NCC2CCCO2)c2ccc(C)o2)cc1` (configuration not stated), the Potency is reported as inconclusive [inhibitor, partial curve].
